Measured values published in the supplement of paper PMC3334620.
Over roughly 33,000 sequences, “E-score (-0.5 to 0.5)” has its median near -0.041; the highest 2% begin near 0.37. Some of the results follow.

Target: T1, Ecm22 (UniProt Q05958)
T1 sequence: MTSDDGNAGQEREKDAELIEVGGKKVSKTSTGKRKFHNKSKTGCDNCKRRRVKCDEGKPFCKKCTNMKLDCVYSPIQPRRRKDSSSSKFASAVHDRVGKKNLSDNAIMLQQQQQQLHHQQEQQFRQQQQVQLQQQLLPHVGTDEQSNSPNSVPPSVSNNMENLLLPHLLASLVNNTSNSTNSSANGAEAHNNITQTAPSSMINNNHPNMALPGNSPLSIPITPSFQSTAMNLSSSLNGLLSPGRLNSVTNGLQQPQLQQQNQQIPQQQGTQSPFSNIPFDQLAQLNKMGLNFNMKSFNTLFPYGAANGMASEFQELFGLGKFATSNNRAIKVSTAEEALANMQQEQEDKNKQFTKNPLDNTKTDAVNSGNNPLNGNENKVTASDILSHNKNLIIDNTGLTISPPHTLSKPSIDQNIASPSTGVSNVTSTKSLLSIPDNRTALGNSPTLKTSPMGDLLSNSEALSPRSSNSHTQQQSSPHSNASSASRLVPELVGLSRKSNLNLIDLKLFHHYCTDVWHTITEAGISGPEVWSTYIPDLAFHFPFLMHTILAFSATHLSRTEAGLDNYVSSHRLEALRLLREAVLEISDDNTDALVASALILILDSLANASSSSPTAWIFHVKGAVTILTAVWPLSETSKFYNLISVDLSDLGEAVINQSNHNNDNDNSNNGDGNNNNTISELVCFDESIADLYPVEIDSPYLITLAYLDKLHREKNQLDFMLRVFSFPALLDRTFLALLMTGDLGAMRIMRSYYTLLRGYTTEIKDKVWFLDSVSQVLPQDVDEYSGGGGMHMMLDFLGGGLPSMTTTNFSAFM
Assay: PBM E-score (8-mer binding enrichment) (E-score (-0.5 to 0.5)); higher = stronger / more preferred TF binding; most listed sequences are background and not binding sites
Conditions: protein concentration: 200 nM; construct: GST-full length
In short: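 PURExpress in vitro transcription/translation supplied GST-tagged yeast transcription factors, either full-length or DNA-binding domain. Applied at about 100-200 nM to universal all-10-mer Agilent arrays double-stranded by primer extension, the bound protein was detected with fluorescent anti-GST. E-scores, modified Wilcoxon-Mann-Whitney statistics, were given by the Universal PBM Analysis Suite to ungapped eight-base words pooled with their reverse complements after masliner normalisation.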

Sequence	PBM E-score
ACTTGGCG	-0.126
GCGACCCC	0.0448
AGTTGGTA	0.00654
CGAAAGCG	0.167
AATGGAAC	0.108
AAGAATAG	0.0585
ACCAGAGC	-0.0456
GGGACATA	-0.148
ATCTCATG	-0.101
CCTTGTCG	-0.0134
AGGGCTCC	-0.349
CGTGTCCA	-0.0797
GATTAAAC	0.242
ATGTCGTA	0.446
AGAACCTG	-0.00649
TAACGATA	0.367
AGGGCGGA	-0.248
ACCAAGTG	-0.104
AGGGACTC	-0.00412
TGATCGAA	0.0493
GTCGGCGA	0.0666
CAGCTCAG	-0.152
CCTGTCCC	0.0733
ATATTTCC	-0.0965
AATGGTGT	-0.0533

Sequence	PBM E-score
TATGCCGA	0.147
ACAGCCTC	0.0305
CATTTTAG	-0.00461
CGCTCCAC	0.198
TCTTTACA	-0.132
ATTCGAAG	0.0815
TAGAGCAA	-0.188
ATGGCATG	0.116
AGCTAAAA	-0.0878
GACCCTAC	-0.111
GGTCGAAA	-0.0972
AAGGCTGT	-0.199
CGCGGTAA	0.191
AGGGCCTC	-0.0981
ATAGCGAT	0.0467
GGTACTCA	-0.0835
GGTTCGTA	0.443
CCCTTCAC	-0.377
CTTTTGTC	-0.0686
TATCACAA	-0.00627
GCACCATA	-0.068
CTGCCGTA	0.274
GCCGAAAA	0.174
CTGTACGC	0.314
CTAGTGCA	-0.109

Sequence	PBM E-score
AGTCAACT	-0.0186
ACAAATTC	0.0192
CAATCGGC	-0.215
CAGTATTC	0.122
CACAATAA	-0.132
CCAAGCTC	0.0493
CCTGACAG	-0.217
GCCGCACC	0.032
GCCAAACA	-0.141
TGTGCCAA	-0.153
GCTCGGCC	0.0242
GCAAAGCA	-0.0481
CTATCGAC	-0.107
AATCGGGA	-0.141
CTCCCGTC	0.121
ACAGTACT	0.0175
AGGGCTCA	-0.212
AAGCTTGT	0.0175
CCTGATCC	0.025
CGAGCTTA	0.154
GCCGTCAA	-0.126
AAGGTTTG	-0.00626
AGCGACAA	0.139
GTTTGGCA	0.111
CTTCTGCC	0.0205

Sequence	PBM E-score
GACGGCTC	-0.00355
CTGGAGCA	-0.334
CCTATCTC	-0.117
TATGGCAA	-0.0965
AAATACCC	-0.06
ATGCCTGC	-0.144
CTACGTAA	0.156
ATGGAGGC	-0.128
CATACAGA	-0.144
AAGTTCGA	0.0267
CGGTAATC	0.0961
CTATCCTA	-0.138
CTCCACAC	-0.202
ATGGTTAG	-0.0935
AGCATCCA	-0.245
GCAAATCC	0.0644
GGGGAGCA	-0.0566
CTGCAAAG	-0.0894
AACCGGAG	-0.0216
GCCGCCAC	-0.297
CTGCTTAA	-0.177
CCAGTTAG	-0.265
CTGCCCAG	-0.267
CAGCTAAG	-0.264
ACAACGTG	-0.189

Sequence	PBM E-score
CTGAAGTA	-0.134
CGGCAACG	0.266
GGCTAGAC	-0.215
CCATTGCA	-0.0823
ACTTACTG	0.0213
CCGTAGCC	0.0617
ACCGACCG	0.278
AGTTCTAC	-0.00157
CAATTGAC	-0.0565
CTCGAACA	-0.0783
CCACCGCC	-0.0914
GAGACTCA	-0.0576
ATTTGGCA	0.00392
GGCAACCA	-0.0847
AGATGAAG	-0.13
GCCTGTTA	-0.313
ACTCATGG	-0.107
AGGGGCTG	-0.103
ATTTCTTC	0.109
ATAAATCA	0.0524
AGTGGAGC	-0.061
CCGGTGAA	0.0859
TATGCCAA	-0.123
AGGTGGCA	-0.149
CGGAGCTA	0.12

Sequence	PBM E-score
CTACGGAA	0.0649
AACTTGAC	-0.151
GCGCCGAC	-0.219
CCCTGCAC	-0.239
GCATTAGA	-0.155
GGATACCA	-0.0853
GAGAGTAC	-0.0261
GATACCGA	-0.0344
AGGGAGTC	-0.28
AAGGTCGT	0.294
AAAGCCTC	0.0517
CGTTCAAG	0.335
GGGCTGGA	-0.17
ACAGTGGC	-0.134
GCAGAGGA	0.0203
CAGTAACG	0.0795
TACCTCGA	0.148
AACACAGT	-0.00107
TCCCATAA	-0.212
CCACTTAA	-0.157
CCGCTTCC	-0.0138
ATTTACCA	-0.0924
ACAGTTGC	-0.163
AGGTGCTC	-0.233
CATCTACG	0.0734

Sequence	PBM E-score
AAGAGATC	0.0711
AAACTCGC	0.215
AGCCCCAC	-0.079
ATACCCTA	0.0675
CGTTGCAA	0.21
AATCTCTA	0.0668
GCTAAGAC	0.00642
ATAAACGC	0.192
CCGTTGGC	-0.171
CAAGCTCG	0.197
CTGTATCC	-0.126
CACCGCCG	-0.0393
CAATATGA	0.146
CCGGAGTC	-0.0329
GCTATAGA	-0.202
CGGACCTC	0.166
GATGCGGC	-0.228
AGTTTAAC	0.09
CGCTTGGC	0.0372
CGAGACTA	0.22
AGTAGACC	0.0733
CACCCCTA	-0.15
